Experimental data: the supplement of paper PMC10126150
Sequences with one replicate were seen in a single cluster, so their values are uncertain.

System: ATP
Assay: switch fluorescence ratio, 500 uM ATP over buffer (Cy3 cluster intensity, sum of 5 cycles each) (fold (ratio)); higher = stronger signal-on switching upon ATP binding; sequences stand for … in TCGTCGGCAGCGTCAGATGTGTATAAGAGACAGTTTTTTTTTTTTTTTTTTTTTTTTT…TC
Details: aptamer strand: ATP DNA aptamer (quencher-CACCTGGGGGAGTATTGCGGAGGAAGG + anchor), 100 nM annealed; ATP concentration: 500 uM; one replicate
Method in brief: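 Exposure to 500 uM ATP lasted 15 min at 22 °C before imaging, and a selection-buffer image was taken beforehand, for Cy3-labelled switching-strand clusters on a modified Illumina MiSeq flow-cell annealed to 100 nM quencher-labelled ATP aptamer. Five buffer/ATP cycles were run with NaOH stripping and re-annealing between them. The fluorescence ratio per cluster is summed target-cycle over summed buffer-cycle Cy3 intensity, averaged per switch-domain sequence. Clusters outside 100-1000 RFU were excluded.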

Sequence	switch fluorescence ratio
CAGGTTAAGA	0.966
AATATCTATG	1.07
GGTAGGCGTT	1.06
TCCAGTGATA	1.08
CGGGAGCGTG	1.08
GCCGCGTTTT	1.03
GTGGAAATTA	0.97
CACATGGTCA	0.969
AAGTATCAGT	0.955
TTAATCGACC	1.06
TACAGGTCCT	1.06
TCAGATAGTG	0.984
CGGAGGCCCT	1.04
GTAACCCGTG	0.992
ACGTGCAATA	5.69
AGGCTAATTA	0.985
ACTTCTTGCC	1.07
TTGCAAGTCG	1.17
TCCCCGTGTC	1.85
AATCGGGGAG	1.01
GATTCGGGCA	0.975
ATAACAGCAC	1.24
GATTATTGTG	1

Sequence	switch fluorescence ratio
GGCAGCCTGT	0.97
CAGGGTCGGA	0.971
CAGAATACTC	2.14
GGTATGAATG	0.997
ACTTTCCCTA	1
CAAGTTGGTT	0.941
TGAGGCGGAG	0.997
TTTTCGCAGG	1.1
TGTTGTAGAT	1.03
CGGTACTTAG	1.07
CATGCGAAGA	0.998
TCTTTTCTGC	1.05
ATGCTGGCTG	1.02
TCTATGAGA	1.06
CTTAGACACC	0.889
CATTTAGTTT	0.98
GAATACATCT	1.01
TGGTTGGC	1.05
GGGCTGTTCA	0.972
CCCCATGCAT	1.56
TCAATGCGCA	0.947
GTTAGGCCC	1
CCGGTAGGGG	1.05

Sequence	switch fluorescence ratio
AACTCAGTTC	0.999
ATACGTGTTC	0.986
ACAAGATCAG	1.02
AAGCAAAA	1.07
CTCCAAGAT	3.62
AGGGCCGATC	0.965
TCAAAGAGCA	1.02
TTGTCTAAAT	1.03
TAAAGACAAC	0.975
CGCCGGATAA	1.1
TAGAGTTTGA	1.01
CATTTTAT	0.985
CACTTCGTAT	1
ACAACGTGTA	0.96
CCAGGAAG	1.02
TGGTGTAGTT	0.992
TAAGTCCCCG	1.02
CAACGGATGA	1.02
GAGATGCGGT	0.951
GCAAGGCGGT	1.04
AGAGAGACAT	0.971
ACCCGGGTAT	2.01
TATTTCTACA	1.05

Sequence	switch fluorescence ratio
GTCGCGTTAG	0.982
CCATTCGTCT	1.01
ACTGTAGGTG	1.11
ATAAAATGCA	0.999
CACCGCTGTT	1.53
ATATCGAGTC	1.06
TTGCCACGGG	1.25
TAAGTAAGGT	1.03
CGTGCTCATG	0.998
AGGTCGGTTT	1.02
CTCGCGCTGG	1.08
TCAATTAACG	1.11
GTTAAGCTGT	0.987
GGTGTAGTT	0.974
CCGGTTCT	1
GTTTGTTCTT	0.981
AAAGAAGGT	1.02
GGCCAGGCTG	1.04
TATATACTTA	1.04
GTCGTTGTAC	1.01
AGTCGTCTAC	0.985
AAGATGTTGA	0.981
GTTAATTGGA	0.99

Sequence	switch fluorescence ratio
CACTTAGATT	1.06
ACCACGATGA	1.1
AAGCGTATTA	0.995
ACTAGGTAAT	0.993
TCGACCTGT	1
CTCGAACGTC	0.948
GCAGGAGAAG	1.01
ACGTAACGAT	1.33
CACGGCAGTG	0.986
TGCTTTTTGA	1.02
TCGGTGCAGA	1.07
TGCCATATTC	1.02
TATTGCACAG	1.02
CCGTAAATTT	1.08
AACCAGACGA	1.73
TTTAGAACCA	1.02
GATAAGTGAA	1.01
GGCGCCAGTA	0.865
CTTACGACGT	1.09
CCATCCTTGG	1.05
TTTCGCTACA	0.967
ATGTAGTTAA	0.999
GGAAGACCGT	1.01

Sequence	switch fluorescence ratio
GCATTGGGTT	0.961
TAATGGTGAT	1.01
GCATATATGT	1.01
AAGGGCTAAG	1.01
GCTCTTGCGG	1.05
AACTGGTGCG	0.953
GGGCAGTACT	1.74
CCTACGGGTT	1.47
ATCTAGGGTA	0.963
GGTGATGATG	0.945
GCGCGCAGAG	1.01
GGATTTCGCG	0.972
AACGCGAGAT	2.31
TTCTAGGCC	0.951
CCGTTCTAGC	1.18
ATGTCGGCTA	0.967
CGGTCAGTTA	1.03
GTCCCTTTCA	0.95
TAAACTCGTA	1.03
AGGGTCAGTC	1.01
TGGCCATAAT	1.02
AGAAAATCC	1.09
CATAGTATTT	1.02

Sequence	switch fluorescence ratio
AGTTGACAGT	0.977
TAGCTAAAGA	1.03
CACCAAGCCT	1.14
AGCTGTGCTC	1.08
AGCATTAGTG	1
TTCCCCGGAC	0.965
CCGAATTCGG	1
GCAGGACAA	1.27
CCAAATTTGT	1.01
TATGAAAGAT	0.989
AGCCTGTTCA	0.983
CCTGTTGAAG	1
AGCTGTTAAT	0.954
GAGTCGACGA	1.04
ACGGCGCTTC	1.29
AGGGAAAGA	1
AGATCGTATG	1.01
GAGGGTAAAG	1
GTGCTTACGG	0.963
